Test results reported in the BET-seq Pho4 binding data (Le et al. 2018).
This is one part of the list. These are noisy estimates, calculated here from bound and input reads.

The sequences below were run against T1, Pho4 (S. cerevisiae) (UniProt P07270) (assay: relative binding free energy (BET-seq); higher = weaker binding). Conditions: reference: library average.
T1 sequence: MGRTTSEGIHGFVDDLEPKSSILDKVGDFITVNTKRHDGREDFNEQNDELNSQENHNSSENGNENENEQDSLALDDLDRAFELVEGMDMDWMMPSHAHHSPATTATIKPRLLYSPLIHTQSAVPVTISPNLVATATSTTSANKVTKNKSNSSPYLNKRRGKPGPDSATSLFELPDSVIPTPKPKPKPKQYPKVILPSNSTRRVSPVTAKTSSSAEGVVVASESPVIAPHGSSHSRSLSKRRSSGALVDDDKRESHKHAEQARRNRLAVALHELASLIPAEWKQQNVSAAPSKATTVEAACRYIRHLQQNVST

Relative binding free energy, 1.13 kJ/mol:
CTTGTCACGTGAAAGG

Relative binding free energy, -0.586 kJ/mol:
TTTTGCACGTGGGGAG
GTCGGCACGTGGGGCG

Relative binding free energy, 0.711 kJ/mol:
TTAGTCACGTGTGGTA
AGGCACACGTGATTGG
ATGGTCACGTGAGCTA
TATGTCACGTGAAGCT

Relative binding free energy, 1 kJ/mol:
TTCCTCACGTGGGGAT
GGGAGCACGTGAATTG
GGTAGCACGTGAGAGT
GGTTTCACGTGAAGGC
ATGTTCACGTGACAGG

Relative binding free energy, -0.711 kJ/mol:
AATAGCACGTGTTTTG
AGTCGCACGTGGTGGT
TTGAGCACGTGCGGAG

Relative binding free energy, 0.293 kJ/mol:
TTACTCACGTGTGGTA
GGACACACGTGTGTTG
GGGATCACGTGGGTTT
GTAATCACGTGGGTGG

Relative binding free energy, -0.92 kJ/mol:
ATATACACGTGGGGAG

Relative binding free energy, -0.879 kJ/mol:
CGTAGCACGTGGCTTG
TTTACCACGTGGGGGT
AGGCGCACGTGGCGCG

Relative binding free energy, -0.628 kJ/mol:
CAGGGCACGTGGTTTG
AAGTGCACGTGGTAGT

Relative binding free energy, -0.209 kJ/mol:
TAGGTCACGTGGGCTT
GGTAGCACGTGCCGGT
TGAGTCACGTGGTGCG

Relative binding free energy, -0.167 kJ/mol:
ACGTGCACGTGAGTTT
GTGTGCACGTGCGAGA
GTGATCACGTGGTCTT

Relative binding free energy, 0.753 kJ/mol:
GTTGTCACGTGTATCA
GGCAACACGTGATGGT
GTTCACACGTGTGGTT
AATTTCACGTGGGTAT
AGATTCACGTGTTATG
ATGTTCACGTGTGCCT
AGTTTCACGTGGGTCG

Relative binding free energy, -0.0837 kJ/mol:
TGGTGCACGTGCGAGA
TGGGGCACGTGATATT
AGCAGCACGTGTTAGG
GTAGTCACGTGCTGTA
TCGGTCACGTGGGGGA

Relative binding free energy, 0.251 kJ/mol:
GCTTGCACGTGTGTTT
GTTGTCACGTGGTGCT
GAATGCACGTGGATGT
TATGTCACGTGTACGT
CGCGCCACGTGAGGGG
GTAGGCACGTGTATAT

Relative binding free energy, -0.335 kJ/mol:
AGCTGCACGTGTGTTG
TGTAGCACGTGCTGAT
AGAGGCACGTGATGTT
TGAGACACGTGGGGCT
GGATGCACGTGGTTCT

Relative binding free energy, 0.167 kJ/mol:
ATCGGCACGTGATCGT
TGGAACACGTGCGGGT
TTCCGCACGTGTTGTA
ATTTCCACGTGTGGGA
TAGAGCACGTGATTAT

Relative binding free energy, 2.22 kJ/mol:
TTCTTCACGTGAGTGG
GAGTTCACGTGAAGGC

Relative binding free energy, 1.26 kJ/mol:
GTCTTCACGTGGTGGG

Relative binding free energy, 0.0418 kJ/mol:
TTTCGCACGTGGAGGC
CGGTACACGTGGGTTA
TACTACACGTGGTTTT
AGGGGCACGTGTAATT
GAGGACACGTGGTGGC
GGCGACACGTGGTAGT
TGTTGCACGTGCAAGA

Relative binding free energy, -0.753 kJ/mol:
GCAGGCACGTGGGGTG
TTTTCCACGTGGGTGA
TGAGGCACGTGCTGTT
ATGGGCACGTGTGCAA

Relative binding free energy, 0.377 kJ/mol:
TAGTTCACGTGCGTTA

Relative binding free energy, -0.251 kJ/mol:
CATCGCACGTGGGTTT
GGTGCCACGTGGTGGC
ATGCACACGTGGTTGT
GTAACCACGTGTGTGT

Relative binding free energy, -1.09 kJ/mol:
TGGTGCACGTGGCAGA
ATCGGCACGTGCGTGT
ATGGGCACGTGGCATT

Relative binding free energy, -0.837 kJ/mol:
TGGGCCACGTGCATGT

Relative binding free energy, -0.795 kJ/mol:
TTGAGCACGTGGTGTA
ATGTGCACGTGGGGCT

Relative binding free energy, 1.51 kJ/mol:
TTGTCCACGTGAAATT

Relative binding free energy, 1.63 kJ/mol:
TTGTTCACGTGAGTAT

Relative binding free energy, 0.628 kJ/mol:
TTCTTCACGTGGTTAT
AGGTTCACGTGCGTAG
TTGCACACGTGTGGTT
AAGATCACGTGTGGTG

Relative binding free energy, -0.502 kJ/mol:
GAGCGCACGTGGTTGA
TCGTGCACGTGGTGAA
GAGGGCACGTGGTGCG
AAGGCCACGTGGTTTT
TCTAGCACGTGGTGTA

Relative binding free energy, 1.05 kJ/mol:
GATTTCACGTGGTCGA
TTTATCACGTGACTTT

Relative binding free energy, -1.21 kJ/mol:
ATTGGCACGTGCTCGT

Relative binding free energy, 1.17 kJ/mol:
GTTCTCACGTGATGGG
GTAAGCACGTGAGGTG
ATTTTCACGTGCAAGG
TCTATCACGTGAGTGG
GTGTGCACGTGAGTGG
AAGTTCACGTGGATCG

Relative binding free energy, 1.09 kJ/mol:
TTTATCACGTGCGGCG
CTAATCACGTGTGATT
GGTGTCACGTGAGGGT

Relative binding free energy, 1.3 kJ/mol:
GGTCACACGTGAAGGT
TAGTTCACGTGTTATA
GTGTTCACGTGAAGTA

Relative binding free energy, -0.126 kJ/mol:
ACATGCACGTGCGGGG
TGGGACACGTGTTCGG
AGGGCCACGTGTTTAG

Relative binding free energy, 0.335 kJ/mol:
TGCATCACGTGATGTG
CAAAGCACGTGTAGTG
GTAGTCACGTGTTTCG

Relative binding free energy, 0.837 kJ/mol:
TGTCTCACGTGTTATT
GTAGGCACGTGTAATC
GTGGTCACGTGGAAGC
GGTCGCACGTGATTGT

Relative binding free energy, -0.418 kJ/mol:
ATGAGCACGTGTATAT
TCTAGCACGTGGGAGG
TAAGGCACGTGTAAAG
ATTGGCACGTGGACGT
TATTGCACGTGGGGCG
GAGGGCACGTGTCGGC

Relative binding free energy, 0.0837 kJ/mol:
GTAGGCACGTGTGCGA
AGTGGCACGTGATTTG
AGGTACACGTGCGTGA

Relative binding free energy, -0.544 kJ/mol:
AGTTGCACGTGGTCGC
ACGTGCACGTGGTGGA
GTATGCACGTGATGAG
TGTGCCACGTGCGTTG

Relative binding free energy, 0.418 kJ/mol:
AATATCACGTGGCGTG
GTGGTCACGTGGCAGC
AGAGTCACGTGTAGGC
AGATACACGTGTGTTG
AGGTGCACGTGAAGAT

Relative binding free energy, -1.59 kJ/mol:
CTCGGCACGTGGGTGT

Relative binding free energy, 0.502 kJ/mol:
GGGTACACGTGTTCTG
AATGTCACGTGCTGGA

Relative binding free energy, 0.209 kJ/mol:
TTGAACACGTGGAATG
GGTGCCACGTGTATGG
ACGTTCACGTGGTGCG
GGGGCCACGTGTTTGT
CAAGGCACGTGTAAGT

Relative binding free energy, 1.38 kJ/mol:
TGTTTCACGTGGACTT

Relative binding free energy, 1.67 kJ/mol:
GGAGACACGTGAATGT
AGTCTCACGTGACGGG
AATTTCACGTGAACTG

Relative binding free energy, 2.05 kJ/mol:
GAGGTCACGTGAGAAT

Relative binding free energy, -0.669 kJ/mol:
ATAGGCACGTGTTTAG
GTGGCCACGTGGGTTA
TTTAGCACGTGGGTTT
GTAGGCACGTGCTGTA

Relative binding free energy, -0.962 kJ/mol:
TTTGGCACGTGGGTAA
ATTAGCACGTGTTGCT
AGACGCACGTGGGGTT

Relative binding free energy, 0 kJ/mol:
GTACGCACGTGGAAGG
GAGGTCACGTGCGGGG
GAGGGCACGTGTTGAC
TGTGTCACGTGCAGTG
AGGAGCACGTGTTAGT
ATGGGCACGTGTGCAT
CTTGGCACGTGACTGT
TTTTACACGTGCTGTT

Relative binding free energy, 0.879 kJ/mol:
GGAGTCACGTGCAGCG
ATTATCACGTGTTTAA
GTATACACGTGCGGCT
TTTTTCACGTGTAGGT

Relative binding free energy, 0.795 kJ/mol:
ACTTTCACGTGTTATG
ATTCACACGTGTTATG
GTCTACACGTGTAGTG
TCAGTCACGTGATTTA
ATGTTCACGTGGTTAG

Relative binding free energy, 1.42 kJ/mol:
AGTTTCACGTGAGTCG
ATCTTCACGTGATGAG
AATCTCACGTGGTTAT
GGGTTCACGTGCGTGA
GTGTTCACGTGTGTCG

Relative binding free energy, 1.46 kJ/mol:
AGATTCACGTGAAGGT
GGATTCACGTGCGGAA

Relative binding free energy, -0.377 kJ/mol:
TGTCACACGTGGGGCG
ATTGTCACGTGGGGGG

Relative binding free energy, 1.21 kJ/mol:
GGCTGCACGTGATTTT
ATTATCACGTGATCGG
GTCTGCACGTGTGATT
AAATTCACGTGGGGGC
TCTTTCACGTGTGTTA

Relative binding free energy, -0.46 kJ/mol:
TAGAGCACGTGCGTGG
AGAGGCACGTGTTGGC

Relative binding free energy, 1.34 kJ/mol:
TGTTTCACGTGAGTGG
GTACTCACGTGTTAAG

Relative binding free energy, 0.46 kJ/mol:
TAGTGCACGTGCAATT
GGTGTCACGTGGTGAC
TGGTACACGTGTTTCT
GTTTGCACGTGTAAGA

Relative binding free energy, 0.669 kJ/mol:
TGGGTCACGTGGAGTG
GAGCTCACGTGGGTGT
TTGAACACGTGGATTT
CATTTCACGTGTTGTA
GGAGGCACGTGTGAAA

Relative binding free energy, 0.126 kJ/mol:
TTTTCCACGTGGGTAA
CTGTACACGTGGATTG
GAAGCCACGTGTGGGG
GTTAACACGTGTGAAT
TCAGGCACGTGTGATT

Relative binding free energy, 0.92 kJ/mol:
GGAGGCACGTGAGTGT
GGTATCACGTGGTGAA
ATTTACACGTGATAAG
TTGTACACGTGGACTT

Relative binding free energy, 0.586 kJ/mol:
ATGGACACGTGGTTTT
AGGGTCACGTGTGTCA
TTGATCACGTGTAGTG

Relative binding free energy, -0.0418 kJ/mol:
TGCGGCACGTGTGGGC
ATTGTCACGTGCAGAG
AGACGCACGTGTTATT
TAACGCACGTGTAGGA
TTGTACACGTGCTTGG
GGTAGCACGTGTAAGA
ATGAACACGTGGTAGT
AGGCACACGTGTTTGT
TGCCTCACGTGGTAGG

Relative binding free energy, -0.293 kJ/mol:
TATAGCACGTGACGGT
ATTGTCACGTGGTGTA
CAGAGCACGTGTGCGG

Relative binding free energy, 0.544 kJ/mol:
AGTCTCACGTGGGCGG
ATGATCACGTGTGTAT
AATATCACGTGGTTTT
CGTGTCACGTGTGGCT
